Test results: paper PMC9911399, “Two distinct binding modes provide the RNA-binding protein RbFox with extraordinary sequence specificity”
Changes are numbered by the printed parent chain; changes in the protein carry UniProt numbers. This is one part of the list.

T1: RBFOX1 RRM RbFoxmut (Fox-RRM*) (Homo sapiens, UniProt Q9NWB1 109-208, R118D;E147R;N151S;E152T)
T1 sequence: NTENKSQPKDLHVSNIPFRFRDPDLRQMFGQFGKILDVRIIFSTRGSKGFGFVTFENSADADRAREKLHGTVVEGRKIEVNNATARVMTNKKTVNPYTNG

B1: GCACUAC (DNA:RNA)
RNA: GGGAGACCGGAAUUCAGAUUGUCCGCACUACUUAAAUCCCGUCGUAGCCACCA
DNA 1: CAATCTGAATTCCGGTCTCCC
DNA 2: TGGTGGCTACGACGGGATT
B2: AGUAGCA (DNA:RNA)
RNA: GGGAGACCGGAAUUCAGAUUGUCCAGUAGCAUUAAAUCCCGUCGUAGCCACCA
DNA 1: CAATCTGAATTCCGGTCTCCC
DNA 2: TGGTGGCTACGACGGGATT
B3: UGCUGGC (DNA:RNA)
RNA: B2 RNA with A25U, U27C, A28U, C30G, A31C
DNA 1: CAATCTGAATTCCGGTCTCCC
DNA 2: TGGTGGCTACGACGGGATT
B4: UGAGCGC (DNA:RNA)
RNA: B1 RNA with G25U, C26G, C28G, U29C, A30G
DNA 1: CAATCTGAATTCCGGTCTCCC
DNA 2: TGGTGGCTACGACGGGATT
B5: CGUUGGG (DNA:RNA)
RNA: B2 RNA with A25C, A28U, C30G, A31G
DNA 1: CAATCTGAATTCCGGTCTCCC
DNA 2: TGGTGGCTACGACGGGATT
B6: GCGUUCC (DNA:RNA)
RNA: B1 RNA with A27G, C28U, A30C
DNA 1: CAATCTGAATTCCGGTCTCCC
DNA 2: TGGTGGCTACGACGGGATT
B7: CCAGGUA (DNA:RNA)
RNA: B2 RNA with A25C, G26C, U27A, A28G, C30U
DNA 1: CAATCTGAATTCCGGTCTCCC
DNA 2: TGGTGGCTACGACGGGATT
B8: GUAUAGC (DNA:RNA)
RNA: B1 RNA with C26U, C28U, U29A, A30G
DNA 1: CAATCTGAATTCCGGTCTCCC
DNA 2: TGGTGGCTACGACGGGATT
B9: CCAACCU (DNA:RNA)
RNA: B2 RNA with A25C, G26C, U27A, G29C, A31U
DNA 1: CAATCTGAATTCCGGTCTCCC
DNA 2: TGGTGGCTACGACGGGATT
B10: CGGCAUA (DNA:RNA)
RNA: B2 RNA with A25C, U27G, A28C, G29A, C30U
DNA 1: CAATCTGAATTCCGGTCTCCC
DNA 2: TGGTGGCTACGACGGGATT
B11: GUCCUGC (DNA:RNA)
RNA: B1 RNA with C26U, A27C, A30G
DNA 1: CAATCTGAATTCCGGTCTCCC
DNA 2: TGGTGGCTACGACGGGATT
B12: AAAAUAC (DNA:RNA)
RNA: B1 RNA with G25A, C26A, C28A
DNA 1: CAATCTGAATTCCGGTCTCCC
DNA 2: TGGTGGCTACGACGGGATT
B13: AGUACGG (DNA:RNA)
RNA: B2 RNA with G29C, C30G, A31G
DNA 1: CAATCTGAATTCCGGTCTCCC
DNA 2: TGGTGGCTACGACGGGATT
B14: CCAAGGA (DNA:RNA)
RNA: B2 RNA with A25C, G26C, U27A, C30G
DNA 1: CAATCTGAATTCCGGTCTCCC
DNA 2: TGGTGGCTACGACGGGATT
B15: AGGGGUG (DNA:RNA)
RNA: B2 RNA with U27G, A28G, C30U, A31G
DNA 1: CAATCTGAATTCCGGTCTCCC
DNA 2: TGGTGGCTACGACGGGATT
B16: UCUAAGC (DNA:RNA)
RNA: B2 RNA with A25U, G26C, G29A, C30G, A31C
DNA 1: CAATCTGAATTCCGGTCTCCC
DNA 2: TGGTGGCTACGACGGGATT
B17: UAAAGUG (DNA:RNA)
RNA: B2 RNA with A25U, G26A, U27A, C30U, A31G
DNA 1: CAATCTGAATTCCGGTCTCCC
DNA 2: TGGTGGCTACGACGGGATT
B18: UGGAGUA (DNA:RNA)
RNA: B2 RNA with A25U, U27G, C30U
DNA 1: CAATCTGAATTCCGGTCTCCC
DNA 2: TGGTGGCTACGACGGGATT
B19: GGAAUUU (DNA:RNA)
RNA: B1 RNA with C26G, C28A, A30U, C31U
DNA 1: CAATCTGAATTCCGGTCTCCC
DNA 2: TGGTGGCTACGACGGGATT
B20: ACCCGCU (DNA:RNA)
RNA: B2 RNA with G26C, U27C, A28C, A31U
DNA 1: CAATCTGAATTCCGGTCTCCC
DNA 2: TGGTGGCTACGACGGGATT

Biological target: T1, RBFOX1 RRM RbFoxmut (Fox-RRM*)
Assay: EMSA; HiTS-Eq, 1 nM pool, 10 min; buffer printed only for the single-RNA assays: 10 mM Tris pH 7.5, 150 mM NaCl, 3.4 mM EDTA, 0.001% NP-40, 30 C
Settings: tags: His6 N-terminal (pET28a); label: 5' 32P
In short: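 These values rest on relative association constants, computed from read-count changes of each RNA species versus the control reaction and normalised to the cognate motif. Reads came from free RNA recovered by 8% native PAGE after purified RbFox RRM (wild type or mutant) at increasing concentrations was equilibrated for 10 min in 50 µL with 1 nM of a 5′-radiolabelled pool with 7 randomized nucleotides and DNA-annealed flanks.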

Row | Binder | binding signal
1 | B1 | 0.0875 KA relative to UGCAUGU
2 | B2 | 0.159 KA relative to UGCAUGU
3 | B3 | 0.119 KA relative to UGCAUGU
4 | B4 | 0.0889 KA relative to UGCAUGU
5 | B5 | 0.0874 KA relative to UGCAUGU
6 | B6 | 0.0604 KA relative to UGCAUGU
7 | B7 | 0.147 KA relative to UGCAUGU
8 | B8 | 0.147 KA relative to UGCAUGU
9 | B9 | 0.0994 KA relative to UGCAUGU
10 | B10 | 0.108 KA relative to UGCAUGU
11 | B11 | 0.104 KA relative to UGCAUGU
12 | B12 | 0.076 KA relative to UGCAUGU
13 | B13 | 0.107 KA relative to UGCAUGU
14 | B14 | 0.0815 KA relative to UGCAUGU
15 | B15 | 0.241 KA relative to UGCAUGU
16 | B16 | 0.102 KA relative to UGCAUGU
17 | B17 | 0.12 KA relative to UGCAUGU
18 | B18 | 0.168 KA relative to UGCAUGU
19 | B19 | 0.0957 KA relative to UGCAUGU
20 | B20 | 0.0816 KA relative to UGCAUGU
